# Results from the supplement of paper PMC8728848.
# The other results are listed elsewhere or left out.
# B1: Surfactant Protein D (Human); Neck + Carbohydrate Recognition Domain (NCRD) (Homo sapiens) (protein)
# chain: MLLFLLSALVLLTQPLGYLEAEMKTYSHRTMPSACTLVMCSSVESGLPGRDRDGREGPRGEKGDPGLPGAAGQAGMPGQAGPVGPKGDNGSVGEPGPKGDTGPSGPPGPPGVPGPAGREGALGKQGNIGPQGKPGPKGEAGPKGEVGAPGMQGSAGARGLAGPKGERGVPGERGVPGNTGAAGSAGAMGPQGSPGARGPPGLKGDKGIPGDKGAKGESGLPDVASLRQQVEALQGQVQHLQAAFSQYKKVELFPNGQSVGEKIFKTAQFVKPFTEAQLLCTQAGGQLASPRSAAENAALQQLVVAKNEAAFLSMTDSKTEGKFTYPTGESLVYSNWAPGEPNDAGGSEDCVEIFTNGKWNDRACGEKRLVVCEF
# How the values were obtained:
# Test in all cases: glycan array binding signal (z-score within array); higher = stronger binding
# Conditions in all cases: glycan notation: IUPAC condensed, linker removed; mutation: D325A
# Gal6S(b1-4)Glc = biological target: Gal6S(b1-4)Glc
# How it was run: (§1)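 The Consortium for Functional Glycomics database supplied 3228 glycan arrays, of which those lacking an available protein sequence were dropped. The binding signal, a within-array Z-score, was averaged across arrays of the same protein sequence and across linkers. Negative scores can be read as non-binding.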
# Gal6S(b1-4)Glc6S = biological target: Gal6S(b1-4)Glc6S
# How it was run: as §1
# Gal6S(b1-4)GlcNAc = biological target: Gal6S(b1-4)GlcNAc
# How it was run: as §1
# Gal6S(b1-4)GlcNAc6S = biological target: Gal6S(b1-4)GlcNAc6S
# How it was run: as §1
# GalNAc(a1-3)Gal = biological target: GalNAc(a1-3)Gal
# How it was run: as §1
# GalNAc(a1-3)GalNAc = biological target: GalNAc(a1-3)GalNAc
# How it was run: as §1
# GalNAc(b1-3)Gal = biological target: GalNAc(b1-3)Gal
# How it was run: as §1
# [1] = biological target: GalNAc(b1-3)Gal(a1-4)Gal(b1-4)GlcNAc
# How it was run: as §1
# GalNAc(b1-3)GalNAc = biological target: GalNAc(b1-3)GalNAc
# How it was run: as §1
# GalNAc(b1-4)GlcNAc = biological target: GalNAc(b1-4)GlcNAc
# How it was run: as §1
# Glc(a1-4)Glc = biological target: Glc(a1-4)Glc
# How it was run: as §1
# Glc(a1-6)Glc(a1-6)Glc = biological target: Glc(a1-6)Glc(a1-6)Glc
# How it was run: as §1
# Glc(b1-4)Glc = biological target: Glc(b1-4)Glc
# How it was run: as §1
# Glc(b1-6)Glc = biological target: Glc(b1-6)Glc
# How it was run: as §1
# GlcA(b1-3)Gal = biological target: GlcA(b1-3)Gal
# How it was run: as §1
# GlcA(b1-3)GlcNAc = biological target: GlcA(b1-3)GlcNAc
# How it was run: as §1
# GlcA(b1-6)Gal = biological target: GlcA(b1-6)Gal
# How it was run: as §1
# [2] = biological target: GlcNAc(a1-3)Gal(b1-4)GlcNAc
# How it was run: as §1
# [3] = biological target: GlcNAc(a1-6)Gal(b1-4)GlcNAc
# How it was run: as §1
# [4] = biological target: GlcNAc(b1-2)Gal(b1-3)GalNAc
# How it was run: as §1
# [5] = biological target: GlcNAc(b1-2)Man(a1-3)[GlcNAc(b1-2)Man(a1-6)]Man(b1-4)GlcNAc(b1-4)GlcNAc
# How it was run: as §1
# GlcNAc(b1-3)Gal = biological target: GlcNAc(b1-3)Gal
# How it was run: as §1
# [6] = biological target: GlcNAc(b1-3)Gal(b1-3)GalNAc
# How it was run: as §1
# GlcNAc(b1-3)Gal(b1-4)Glc = biological target: GlcNAc(b1-3)Gal(b1-4)Glc
# How it was run: as §1
# [7] = biological target: GlcNAc(b1-3)Gal(b1-4)GlcNAc
# How it was run: as §1
# [8] = biological target: GlcNAc(b1-3)Gal(b1-4)GlcNAc(b1-3)Gal(b1-4)GlcNAc
# How it was run: as §1
# GlcNAc(b1-3)GalNAc = biological target: GlcNAc(b1-3)GalNAc
# How it was run: as §1
# GlcNAc(b1-3)Man = biological target: GlcNAc(b1-3)Man
# How it was run: as §1
# [9] = biological target: GlcNAc(b1-3)[GlcNAc(b1-4)][GlcNAc(b1-6)]GlcNAc
# How it was run: as §1
# [10] = biological target: GlcNAc(b1-3)[GlcNAc(b1-6)]Gal(b1-4)GlcNAc
# How it was run: as §1
# [11] = biological target: GlcNAc(b1-3)[GlcNAc(b1-6)]GalNAc
# How it was run: as §1
# [12] = biological target: GlcNAc(b1-4)Gal(b1-4)GlcNAc
# How it was run: as §1
# GlcNAc(b1-4)GlcNAc = biological target: GlcNAc(b1-4)GlcNAc
# How it was run: as §1
# [13] = biological target: GlcNAc(b1-4)GlcNAc(b1-4)GlcNAc
# How it was run: as §1
# [14] = biological target: GlcNAc(b1-4)GlcNAc(b1-4)GlcNAc(b1-4)GlcNAc(b1-4)GlcNAc
# How it was run: as §1
# [15] = biological target: GlcNAc(b1-4)GlcNAc(b1-4)GlcNAc(b1-4)GlcNAc(b1-4)GlcNAc(b1-4)GlcNAc
# How it was run: as §1
# [16] = biological target: GlcNAc(b1-4)[GlcNAc(b1-6)]GalNAc
# How it was run: as §1
# [17] = biological target: GlcNAc(b1-6)Gal(b1-4)GlcNAc
# How it was run: as §1
binder,measurement,setting,value
B1,glycan array binding signal (z-score),Gal6S(b1-4)Glc,-0.245
same,glycan array binding signal (z-score),Gal6S(b1-4)Glc6S,-0.268
same,glycan array binding signal (z-score),Gal6S(b1-4)GlcNAc,-0.262
same,glycan array binding signal (z-score),Gal6S(b1-4)GlcNAc6S,-0.274
same,glycan array binding signal (z-score),GalNAc(a1-3)Gal,-0.273
same,glycan array binding signal (z-score),GalNAc(a1-3)GalNAc,-0.272
same,glycan array binding signal (z-score),GalNAc(b1-3)Gal,-0.234
same,glycan array binding signal (z-score),[1],-0.247
same,glycan array binding signal (z-score),GalNAc(b1-3)GalNAc,-0.273
same,glycan array binding signal (z-score),GalNAc(b1-4)GlcNAc,-0.221
same,glycan array binding signal (z-score),Glc(a1-4)Glc,0.526
same,glycan array binding signal (z-score),Glc(a1-6)Glc(a1-6)Glc,-0.222
same,glycan array binding signal (z-score),Glc(b1-4)Glc,-0.269
same,glycan array binding signal (z-score),Glc(b1-6)Glc,-0.259
same,glycan array binding signal (z-score),GlcA(b1-3)Gal,-0.267
same,glycan array binding signal (z-score),GlcA(b1-3)GlcNAc,-0.257
same,glycan array binding signal (z-score),GlcA(b1-6)Gal,-0.26
same,glycan array binding signal (z-score),[2],-0.255
same,glycan array binding signal (z-score),[3],-0.271
same,glycan array binding signal (z-score),[4],-0.277
same,glycan array binding signal (z-score),[5],2.67
same,glycan array binding signal (z-score),GlcNAc(b1-3)Gal,-0.271
same,glycan array binding signal (z-score),[6],-0.256
same,glycan array binding signal (z-score),GlcNAc(b1-3)Gal(b1-4)Glc,-0.259
same,glycan array binding signal (z-score),[7],-0.269
same,glycan array binding signal (z-score),[8],-0.253
same,glycan array binding signal (z-score),GlcNAc(b1-3)GalNAc,-0.267
same,glycan array binding signal (z-score),GlcNAc(b1-3)Man,-0.275
same,glycan array binding signal (z-score),[9],0.662
same,glycan array binding signal (z-score),[10],0.163
same,glycan array binding signal (z-score),[11],-0.171
same,glycan array binding signal (z-score),[12],-0.128
same,glycan array binding signal (z-score),GlcNAc(b1-4)GlcNAc,-0.265
same,glycan array binding signal (z-score),[13],-0.253
same,glycan array binding signal (z-score),[14],-0.239
same,glycan array binding signal (z-score),[15],-0.274
same,glycan array binding signal (z-score),[16],-0.031
same,glycan array binding signal (z-score),[17],-0.26
